According to PubChem BioAssay AID1671189 (National Center for Advancing Translational Sciences (NCATS), 2021):
Among all 1,100 compounds or so, about 70 (6%) were called active. About 22% were inconclusive and are not listed. Calls follow the shape of the dose curve; as a rule, active = well fitted curve in the direction sought with a large enough effect; inconclusive = small, poorly fitted or top-dose-only effect, or another doubt; inactive = no such curve, though single readings can be large or run the other way. The list shows a part of the results.

Biological target: Polyunsaturated fatty acid lipoxygenase ALOX12 (Homo sapiens) (UniProt P18054)
Assay: Confirmatory qHTS assay for inhibitors of human arachidonate 12S-lipoxygenase (ALOX12): Round 2
Settings: purified human 12-LOX, xylenol orange absorbance; series mostly up to 125 µM; activity change, negative = inhibition: at the top concentration
From the text: Assay Provider: Theodore R. Holman Ph.D. University of California, Santa Cruz, California Human lipoxygenase 12hLO is a member of the closely related lipoxygenase family of enzymes which catalyze the site-specific oxidation of arachidonic acid to various hormone precursor molecules and as such is a candidate for drug development in a variety of disease areas, such as cancer and inflammation. Inhibition of 12hLO activity was screened by utilizing arachidonic acid as a substrate. The extent of hydroperoxide product formation was measured by a secondary chromogenic reaction in which xylenol orange (XO, Sigma-Aldrich, cat. number 39,818-7) reacts with the ferric ions produced from the reaction between the hydroperoxide and ferrous ions. The Fe (III)-XO complex is characterized with red-shifted absorbance at 560 nm. A purified preparation of human 12hLO was supplied by Dr. Holman laboratory, University of California, Santa Cruz.
PROTOCOL TABLE SEQUENCE No. (e.g., 1, 2, 3, etc.); […] (e.g., Cells, Incubation, Reagent, etc.); VALUE; DESCRIPTION 1; Enzyme; 3 uL; 150 nM 12hLO enzyme solution dispensed in 1536-well Greiner black, clear bottom plates. 2; Compound; 23 nL; compounds and controls were added. 3; Incubate; 15 min; room temperature. 4; Substrate; 1 uL; 40 uM arachidonic acid (final concentration). 5; Incubate; 30 min; room temperature. 6; Reagent; 4 uL; Fe-XO solution was added to each well. 7; Incubation; 30 min; room temperature 8; Detector; absorbance; Read 1 at 405 nm absorbance using ViewLux (PerkinElmer) CCD imager. 9; Detector; absorbance; Read 2 at 573 nm absorbance using ViewLux (PerkinElmer) CCD imager. NOTES (numbers refer to sequence above) 1; 150 nM 12hLO (final concentration) in buffer solution (25 mM Hepes, 0.01% Triton X-100, pH 7.0) was dispensed in columns 1, 2, 5-48. Column 1 is neutral (100% activity). Buffer only was dispensed in columns 3 and 4 as no enzyme negative controls. The plates were covered with metal lids with gas-exchange holes. 2; Compounds were pin transferred via a Kalypsys Pin Tool (Wako USA) in column 5 - 48. Control compound was transferred in column 2, titration of nordihydroguaiaretic acid (NDGA, Sigma-Aldrich, N5023) with top concentration of 20 mM in DMSO then 1:3 dilution in duplicate. Dilution factor of 23 nL into 4 uL final assay volume. 3; Covered assay plates were incubated for 15 min at room temperature. 4; Substrate was added to start the reaction; 40 uM arachidonic acid (Sigma-Aldrich, St. Louis, MO) was dispensed throughout the plate. 6; Chromogenic detection reagent solution (divalent iron/xylenol orange, Fe-XO) was added to each well: 200 uM xylenol orange, 300 uM ferrous ammonium sulfate prepared freshly in 50 mM sulfuric acid. 8, 9; Two absorbance readouts were obtained at 405 nm and at 573 nm using a ViewLux high-throughput CCD plate imager (PerkinElmer). The 573 to 405 (Read 2 / Read 1) absorbance ratio was used to compute reaction progress.
% is scaled to controls: 0 for no effect and ±100 for the full control effect; potency is read from the fitted curve at half-maximal effect.

UniProt P18054, sequence (P18054 whole entry, looked up): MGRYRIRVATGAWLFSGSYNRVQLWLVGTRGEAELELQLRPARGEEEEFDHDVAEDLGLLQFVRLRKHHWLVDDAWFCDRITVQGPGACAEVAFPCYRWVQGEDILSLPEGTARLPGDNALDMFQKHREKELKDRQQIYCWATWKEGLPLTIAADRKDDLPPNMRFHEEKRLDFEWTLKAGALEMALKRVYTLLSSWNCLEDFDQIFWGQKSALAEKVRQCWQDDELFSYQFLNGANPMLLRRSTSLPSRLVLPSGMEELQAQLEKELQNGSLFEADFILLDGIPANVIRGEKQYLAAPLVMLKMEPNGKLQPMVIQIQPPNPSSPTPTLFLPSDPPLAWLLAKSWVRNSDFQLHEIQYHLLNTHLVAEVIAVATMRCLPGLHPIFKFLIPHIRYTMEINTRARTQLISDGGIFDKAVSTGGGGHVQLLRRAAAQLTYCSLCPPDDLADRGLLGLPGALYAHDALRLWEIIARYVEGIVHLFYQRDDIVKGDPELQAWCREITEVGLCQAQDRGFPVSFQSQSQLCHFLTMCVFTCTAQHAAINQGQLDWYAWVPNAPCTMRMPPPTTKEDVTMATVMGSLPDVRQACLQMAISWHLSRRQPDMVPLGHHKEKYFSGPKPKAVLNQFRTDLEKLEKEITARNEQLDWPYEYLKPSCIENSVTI

Potency, active:
CCOC(=O)Cn1c(=O)n(-c2ccccc2OC)c2nc(-c3cccc(F)c3)nc(C(N)=O)c21 4.4 µM

Activity change, negative = inhibition, inactive:
O=C(N1CCOCC1)N1CCC(c2nnc3n2CCNC3)CC1 -2.44%
CC(C)CCN1CCC2(C1)C(=O)N(c1ccccc1)c1ccccc12 (stereo unspecified) -13.1%
CN1CC(=O)N(C2CCNCC2)Cc2c(NCCOc3ccccc3)ncnc21 -11.1%
O=C(c1cc(C2CC2)nc2onc(C3CCCN3)c12)N1CCC(F)CC1 (stereo unspecified) -12.7%
CNCc1ccccc1Cl -9.03% [at 233 µM]
CO[C@H]1C(=O)N(C2CCN(C(=O)c3cccc4[nH]ccc34)CC2)[C@H]1c1ccncc1 -11.8% [at 64.5 µM]
CN1CC(=O)N(C2CCCNCC2)Cc2c(NCCO)ncnc21 (stereo unspecified) -8.04%
COc1ccc(CN2CCCCC23Cc2ccccc2CNC3=O)c(OC)c1 (stereo unspecified) -10.6%
O=C1NC(=NC2CCCC2)C2(CCN(CC3CCCCC3)CC2)N1c1cc(F)cc(F)c1 -13.5%
NCCC(=O)N1CCCC2(Cc3ccccc3CN2C(=O)c2ccccc2)C1 (stereo unspecified) -2.46%
COCCCN1C(=O)N(Cc2nncn2C(C)C)C(=O)C12CCNCC2 -11.6% [at 64.5 µM]
O=C1NCc2ccccc2CC12CCCN2Cc1ccccc1Cl (stereo unspecified) -6.54%
O=C(N1CCOCC1)N1CCN(c2ccc(Cl)nn2)C(=O)C1 -15.4%
COCCNC(=O)c1cc(-c2ccc(OC)cc2)nc2onc(C3CCCN3)c12 (stereo unspecified) -22.6%
COc1cccc(-c2ccc(CN3C4CCC3CN(C(=O)Nc3ccccc3F)C4)cc2)c1 -25.4%
N#Cc1cc2nc(O)c(O)nc2cc1[N+](=O)[O-] -5.48%
COc1ccc(N2CC3CCC(C2)N3C(=O)c2ccc3c(c2)OCO3)cc1 -19.9%
CN1CC(=O)N(C2CCNC2)Cc2c1ncnc2N1CCC(N)CC1 (stereo unspecified) -5.34%
O=C(c1ccccc1)N1Cc2ccccc2CC2(CCN(CC3CCNC3)C2)C1 (stereo unspecified) -11.4%
O=C(O)CCC(=O)N1Cc2ccccc2CC2(CCCN2Cc2cccnc2)C1 (stereo unspecified) -6.82%
COc1cccc(N2C(=O)NC(=NC3CCCCC3)C23CCCN([S+](=O)([O-])c2cccs2)C3)c1 (stereo unspecified) -25.9%
CC(C)OCCCNc1ncnc2c1CN(C1CCNC1)C(=O)CN2C (stereo unspecified) -16.7%
COCc1nc(NCCCN2CCOCC2)cc(C2CC(N)C2)n1 (stereo unspecified) -4.73% [at 64.5 µM]
CCCC(=O)N1Cc2ccccc2CC2(CCN(Cc3ccc(O)cc3)C2)C1 (stereo unspecified) -12.5%
CC(C)NC(=O)N1CCCC1c1nnc2n1CCNC2 (stereo unspecified) -22.2%
CC(=O)Nc1ccc(C(=O)N2C3CCC2CN(C(C)C)C3)cc1 -3.98%
NCc1ccc(-c2ccccn2)cc1 -1.69% [at 233 µM]
OCC#CCSc1nnc(-c2cccc3ccccc23)o1 -4.67% [at 64.5 µM]
COc1ccc(CC(=O)N2Cc3ccccc3CC3(CCN(CC4CCNC4)C3)C2)cc1 (stereo unspecified) -6.64%
CC(C)c1ccc(CNC(=O)C2CCN(c3cc(C(F)(F)F)ncn3)CC2)cc1 3.84% [at 64.5 µM]
O=C1NCc2ccccc2CC12CCCN2Cc1ccc(O)cc1O (stereo unspecified) -18.7%
Nc1ccc(CN2CCCC3(Cc4ccccc4CNC3=O)C2)cc1 (stereo unspecified) -12.3%
Cc1ccc(CN2CCC3(CC2)Cc2ccccc2CNC3=O)cc1C -18.2%
CN(C)CC(=O)N1Cc2ccccc2CC2(CCCN(CC3CCNC3)C2)C1 (stereo unspecified) -3.79%
COc1ccccc1NC1CN(C(=O)OC(C)(C)C)C1 -21.4%
COc1cccc(CCn2ccnc2-c2cc3n(n2)CCCNC3)c1OC 12% [at 64.5 µM]
CCC(=O)N1Cc2ccccc2CC2(CCCCN2CC2CCOCC2)C1 (stereo unspecified) -11.8%
Cc1cc(C(=O)N2CCC(F)CC2)c2c(C3CCCN3)noc2n1 (stereo unspecified) -10.6%
Cn1nc(C2CCCNC2)c2c(C(=O)NCC(F)(F)F)cc(C3CC3)nc21 (stereo unspecified) -21.6%
CC(CCc1ccccc1)Nc1ncnc2c1CN(C1CCNC1)C(=O)CN2C (stereo unspecified) -16.1%
Cc1cc(C(=O)NCc2c(C)ncc3c2CCNC3)ccc1F -0.721% [at 64.5 µM]
COc1cc(OC(F)(F)F)ccc1C(=O)NCc1nnc2n1C(C(=O)O)CC2 (stereo unspecified) -0.939%
COc1cccc(N2C(=O)NC(=NC3CCCCC3)C23CCN(C(=O)c2ccccc2OC)C3)c1 (stereo unspecified) -9.12%
Cc1ccc(C(=O)N2CCn3c(nnc3C3CCNCC3)C2)cc1 -13.1%
CC(C)(Oc1nn(Cc2cccc(Cl)c2)c2ccccc12)C(=O)NCCCn1ccnc1 13.6% [at 64.5 µM]
OC[C@@H]1CN(Cc2cccc3[nH]ccc23)C[C@H]1c1ccncc1 -2.39% [at 64.5 µM]
Cc1ncc([N+](=O)[O-])n1CC(C)O (stereo unspecified) -17.2%
COC(=O)[C@@H]1Cc2nc[nH]c2CN1C(C)C 5.41% [at 233 µM]
O=C(c1ccncc1)N1CCN(c2ccc(Cl)nn2)C(=O)C1 -21.2%
O=C(NCc1ccc(Cl)nc1)c1cn2c(n1)CN(C(=O)c1ccccc1)CC2 -4.72%
NCC(=O)N1Cc2ccccc2CC2(CCN(CC3CCNC3)C2)C1 (stereo unspecified) -11.4%
O=C(O)Cn1nc(-c2ccncc2)nc1C1CCOC1 (stereo unspecified) -9.74% [at 64.5 µM]
COC(=O)CNC(=O)C1CCc2nnc(CNC(=O)c3cccnc3)n21 (stereo unspecified) -6.06%
CC(=O)N1CCn2cc(C(=O)N3CCOCC3)nc2C1 -9.94%
COc1ccc(N2CC3CCC(C2)N3C(=O)NC(C)C)cc1 -10%
